# In the supplement of paper PMC8728848:
# The other results are listed elsewhere or left out.
# B1: Microvirin-2 (Microcystis aeruginosa) (protein)
# chain: MPNFSHTCSSINYDPDSTILSAECQARDGEWLPTELRLSDHIGNIDGELQFGDQNFQETCQDCHLEFGDGEQSVWLVCTCQTMDGEWKSTQILLDSQIDNNDSQLEIGGSMPNFSHTCSSINYDPDSTILSAECQARDGEWLPTELRLSDHIGNIDGELQFGDQNFQETCQDCHLEFGDGEQSVWLVCTCQTMDGEWKSTQILLDSQIDNNDSQLEIG
# Tests used:
# Assay in all cases: glycan array binding signal (z-score within array); higher = stronger binding
# Details in all cases: glycan notation: IUPAC condensed, linker removed
# [1] = target: Neu5Ac(a2-6)Gal(b1-4)GlcNAc(b1-2)Man(a1-3)[Man(a1-6)]Man(b1-4)GlcNAc(b1-4)GlcNAc
# Method in brief: (§1)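 Glycan array binding is given as a within-array Z-score, which can be read as non-binding when negative. The arrays, 3228 of them, came from the Consortium for Functional Glycomics database and were retained only where the protein sequence was available. Z-scores were averaged across arrays of the same protein sequence at different concentrations or buffers and across linkers.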
# [2] = target: Neu5Ac(a2-6)Gal(b1-4)GlcNAc(b1-2)Man(a1-3)[Neu5Ac(a2-3)Gal(b1-4)GlcNAc(b1-2)Man(a1-6)]Man(b1-4)GlcNAc(b1-4)GlcNAc
# Method in brief: as §1
# [3] = target: Neu5Ac(a2-6)Gal(b1-4)GlcNAc(b1-2)Man(a1-3)[Neu5Ac(a2-6)Gal(b1-4)GlcNAc(b1-2)Man(a1-6)]Man(b1-4)GlcNAc(b1-4)GlcNAc
# Method in brief: as §1
# [4] = target: Neu5Ac(a2-6)Gal(b1-4)GlcNAc(b1-2)Man(a1-3)[Neu5Ac(a2-6)Gal(b1-4)GlcNAc(b1-2)Man(a1-6)]Man(b1-4)GlcNAc(b1-4)[Fuc(a1-6)]GlcNAc
# Method in brief: as §1
# [5] = target: Neu5Ac(a2-6)Gal(b1-4)GlcNAc(b1-2)Man(a1-6)Man(b1-4)GlcNAc(b1-4)GlcNAc
# Method in brief: as §1
# [6] = target: Neu5Ac(a2-6)Gal(b1-4)GlcNAc(b1-2)Man(a1-6)[Gal(b1-4)GlcNAc(b1-2)Man(a1-3)]Man(b1-4)GlcNAc(b1-4)GlcNAc
# Method in brief: as §1
# [7] = target: Neu5Ac(a2-6)Gal(b1-4)GlcNAc(b1-2)Man(a1-6)[GlcNAc(b1-2)Man(a1-3)]Man(b1-4)GlcNAc(b1-4)GlcNAc
# Method in brief: as §1
# [8] = target: Neu5Ac(a2-6)Gal(b1-4)GlcNAc(b1-2)Man(a1-6)[Man(a1-3)]Man(b1-4)GlcNAc(b1-4)GlcNAc
# Method in brief: as §1
# [9] = target: Neu5Ac(a2-6)Gal(b1-4)GlcNAc(b1-2)[Neu5Ac(a2-6)Gal(b1-4)GlcNAc(b1-4)]Man(a1-3)[GlcNAc(b1-4)][Neu5Ac(a2-6)Gal(b1-4)GlcNAc(b1-2)[Neu5Ac(a2-6)Gal(b1-4)GlcNAc(b1-6)]Man(a1-6)]Man(b1-4)GlcNAc(b1-4)GlcNAc
# Method in brief: as §1
# [10] = target: Neu5Ac(a2-6)Gal(b1-4)GlcNAc(b1-2)[Neu5Ac(a2-6)Gal(b1-4)GlcNAc(b1-4)]Man(a1-3)[GlcNAc(b1-4)][Neu5Ac(a2-6)Gal(b1-4)GlcNAc(b1-4)Man(a1-6)]Man(b1-4)GlcNAc(b1-4)GlcNAc
# Method in brief: as §1
# [11] = target: Neu5Ac(a2-6)Gal(b1-4)GlcNAc(b1-2)[Neu5Ac(a2-6)Gal(b1-4)GlcNAc(b1-6)]Man(a1-6)[Neu5Ac(a2-6)Gal(b1-4)GlcNAc(b1-2)Man(a1-3)][GlcNAc(b1-4)]Man(b1-4)GlcNAc(b1-4)GlcNAc
# Method in brief: as §1
# [12] = target: Neu5Ac(a2-6)Gal(b1-4)GlcNAc(b1-3)Gal(b1-3)GlcNAc
# Method in brief: as §1
# [13] = target: Neu5Ac(a2-6)Gal(b1-4)GlcNAc(b1-3)Gal(b1-4)GlcNAc
# Method in brief: as §1
# [14] = target: Neu5Ac(a2-6)Gal(b1-4)GlcNAc(b1-3)Gal(b1-4)GlcNAc(b1-2)Man(a1-3)[Neu5Ac(a2-6)Gal(b1-4)GlcNAc(b1-3)Gal(b1-4)GlcNAc(b1-2)Man(a1-6)]GalNAc
# Method in brief: as §1
# [15] = target: Neu5Ac(a2-6)Gal(b1-4)GlcNAc(b1-3)Gal(b1-4)GlcNAc(b1-3)Gal(b1-4)GlcNAc
# Method in brief: as §1
# [16] = target: Neu5Ac(a2-6)Gal(b1-4)GlcNAc(b1-3)Gal(b1-4)GlcNAc(b1-3)Gal(b1-4)GlcNAc(b1-2)Man(a1-3)[Neu5Ac(a2-6)Gal(b1-4)GlcNAc(b1-3)Gal(b1-4)GlcNAc(b1-3)Gal(b1-4)GlcNAc(b1-2)Man(a1-6)]GalNAc
# Method in brief: as §1
# [17] = target: Neu5Ac(a2-6)Gal(b1-4)GlcNAc(b1-3)Gal(b1-4)GlcNAc(b1-3)GalNAc
# Method in brief: as §1
# [18] = target: Neu5Ac(a2-6)Gal(b1-4)GlcNAc(b1-3)Gal(b1-4)GlcNAc(b1-3)[Neu5Ac(a2-6)Gal(b1-4)GlcNAc(b1-3)Gal(b1-4)GlcNAc(b1-6)]GalNAc
# Method in brief: as §1
# [19] = target: Neu5Ac(a2-6)Gal(b1-4)GlcNAc(b1-3)Gal(b1-4)GlcNAc(b1-6)[Gal(b1-3)]GalNAc
# Method in brief: as §1
# [20] = target: Neu5Ac(a2-6)Gal(b1-4)GlcNAc(b1-3)Gal(b1-4)[Fuc(a1-3)]GlcNAc(b1-3)Gal(b1-4)[Fuc(a1-3)]GlcNAc
# Method in brief: as §1
# [21] = target: Neu5Ac(a2-6)Gal(b1-4)GlcNAc(b1-3)GalNAc
# Method in brief: as §1
# [22] = target: Neu5Ac(a2-6)Gal(b1-4)GlcNAc(b1-3)[Neu5Ac(a2-6)Gal(b1-4)GlcNAc(b1-6)]GalNAc
# Method in brief: as §1
# [23] = target: Neu5Ac(a2-6)Gal(b1-4)GlcNAc(b1-6)GalNAc
# Method in brief: as §1
# [24] = target: Neu5Ac(a2-6)Gal(b1-4)GlcNAc(b1-6)[Gal(b1-3)GlcNAc(b1-3)]Gal(b1-4)Glc
# Method in brief: as §1
# [25] = target: Neu5Ac(a2-6)Gal(b1-4)GlcNAc(b1-6)[Gal(b1-3)]GalNAc
# Method in brief: as §1
# [26] = target: Neu5Ac(a2-6)Gal(b1-4)GlcNAc6S
# Method in brief: as §1
# [27] = target: Neu5Ac(a2-6)GalNAc
# Method in brief: as §1
# [28] = target: Neu5Ac(a2-6)GalNAc(b1-4)GlcNAc
# Method in brief: as §1
# [29] = target: Neu5Ac(a2-6)GalNAc(b1-4)GlcNAc6S
# Method in brief: as §1
# [30] = target: Neu5Ac(a2-6)GlcNAc(b1-4)GlcNAc
# Method in brief: as §1
binder,measurement,setting,value
B1,glycan array binding signal (z-score),[1],-0.135
same,glycan array binding signal (z-score),[2],-0.138
same,glycan array binding signal (z-score),[3],-0.131
same,glycan array binding signal (z-score),[4],-0.124
same,glycan array binding signal (z-score),[5],-0.129
same,glycan array binding signal (z-score),[6],-0.14
same,glycan array binding signal (z-score),[7],-0.123
same,glycan array binding signal (z-score),[8],-0.143
same,glycan array binding signal (z-score),[9],-0.133
same,glycan array binding signal (z-score),[10],-0.126
same,glycan array binding signal (z-score),[11],-0.144
same,glycan array binding signal (z-score),[12],-0.123
same,glycan array binding signal (z-score),[13],-0.137
same,glycan array binding signal (z-score),[14],-0.068
same,glycan array binding signal (z-score),[15],-0.142
same,glycan array binding signal (z-score),[16],0.076
same,glycan array binding signal (z-score),[17],-0.13
same,glycan array binding signal (z-score),[18],0.02
same,glycan array binding signal (z-score),[19],-0.123
same,glycan array binding signal (z-score),[20],-0.094
same,glycan array binding signal (z-score),[21],-0.123
same,glycan array binding signal (z-score),[22],-0.138
same,glycan array binding signal (z-score),[23],-0.072
same,glycan array binding signal (z-score),[24],-0.121
same,glycan array binding signal (z-score),[25],-0.107
same,glycan array binding signal (z-score),[26],-0.142
same,glycan array binding signal (z-score),[27],-0.133
same,glycan array binding signal (z-score),[28],-0.136
same,glycan array binding signal (z-score),[29],-0.141
same,glycan array binding signal (z-score),[30],-0.135
